Measurements reported in the antibiotic and cytotoxicity screens of Wong et al. (2023).
The list shows a part of the results.

Tested on: S. aureus RN4220
Assay: growth inhibition call (relative growth <= 0.2)
Settings: 50 µM

Growth inhibition call, inactive:
O=C([C@H]1[C@H](CO)[C@H]2Cn3c(cccc3=O)[C@H]2N1C(=O)C1CCCC1)N1CCOCC1
C[C@H]1CN([C@@H](C)CO)C(=O)c2cccc(NC(=O)C3CCOCC3)c2O[C@H]1CN(C)Cc1ccc(C(=O)O)cc1
COC(=O)C1=C(C)NC(C)=C(C(=O)OCC(C)C)[C@@H]1c1ccccc1[N+](=O)[O-]
C[C@@H]1CN([C@@H](C)CO)C(=O)c2cc(NS(=O)(=O)c3ccccc3)ccc2O[C@@H](C)CCCCO[C@H]1CN(C)S(=O)(=O)c1ccc(Cl)cc1
C[C@@H]1CN([C@H](C)CO)S(=O)(=O)c2ccc(C3=CCCC3)cc2O[C@H]1CN(C)C(=O)c1cnccn1
C[C@@H]1CN([C@H](C)CO)C(=O)c2cccc(NC(=O)CCCCCC(=O)Nc3ccccc3N)c2O[C@@H]1CN(C)Cc1ccc(-c2ccccc2)cc1
COc1ccccc1C#Cc1ccc2c(c1)O[C@H](CN(C)Cc1cncnc1)[C@@H](C)CN([C@H](C)CO)S2(=O)=O
CC(C)NC(=O)N(C)C[C@H]1Oc2c(NS(=O)(=O)c3ccccc3)cccc2C(=O)N([C@@H](C)CO)C[C@H]1C
CSc1ccc(Sc2ccc(SC)cc2)cc1
C[C@H]1CN([C@@H](C)CO)S(=O)(=O)c2ccc(C#CC(C)(C)O)cc2O[C@@H]1CN(C)C(=O)C1CCCCC1
Cc1ccc(S(=O)(=O)N(C)C[C@H]2Oc3ccc(NC(=O)Nc4cccc5ccccc45)cc3CC(=O)N([C@@H](C)CO)C[C@H]2C)cc1
NCCCc1nc2c(s1)CCCC2
COC(=O)CN(C)c1nnc(N)s1
O=c1c(-c2ccc(O)cc2)coc2cc(O[C@@H]3O[C@H](CO)[C@@H](O)[C@H](O)[C@H]3O)ccc12
C[C@@H]1CN([C@H](C)CO)C(=O)Cc2cc(NC(=O)Cc3ccccc3)ccc2O[C@H]1CN(C)Cc1ccc(Oc2ccccc2)cc1
CCn1c(C)cn2c3c(=O)n(CCN4CCOCC4)c(=O)n(C)c3nc12
C[C@@H]1CN([C@@H](C)CO)C(=O)Cc2cc(NS(=O)(=O)c3ccccc3)ccc2O[C@H]1CN(C)S(=O)(=O)c1cn(C)cn1
C[C@H]1CN([C@@H](C)CO)C(=O)Cc2cc(NC(=O)Cn3cnnn3)ccc2O[C@H]1CN(C)Cc1ccc(C(=O)Nc2ccccc2N)cc1
C[C@H]1CN([C@@H](C)CO)C(=O)CCCn2nncc2CO[C@H]1CN(C)S(=O)(=O)c1ccc2ccccc2c1
COc1ccccc1-c1ccc2c(c1)O[C@H](CN(C)CC1CCOCC1)[C@@H](C)CN([C@@H](C)CO)S2(=O)=O
COc1ccc(NC(=O)Nc2cccc3c2O[C@H](CN(C)C(=O)Nc2cccc4ccccc24)[C@H](C)CN([C@H](C)CO)C3=O)cc1
Cc1ccc(NC(=O)c2ccc(CN3CC[C@H](N(C)C)C3)c(C(F)(F)F)c2)cc1Nc1nccc(-c2cncnc2)n1
C[C@@H]1CCCCO[C@H](CN(C)C(=O)Nc2ccccc2)[C@H](C)CN([C@H](C)CO)C(=O)c2cc(NC(=O)Nc3ccccc3)ccc2O1
Cc1ccc(S(=O)(=O)N(C)C[C@@H]2Oc3c(NS(=O)(=O)c4cn(C)cn4)cccc3C(=O)N([C@H](C)CO)C[C@H]2C)cc1
C[C@@H]1CCCCO[C@H](CN(C)S(=O)(=O)c2ccc(Cl)cc2)[C@H](C)CN([C@H](C)CO)C(=O)c2cc(NC(=O)C3CCCCC3)ccc2O1
C[C@@H]1CN([C@@H](C)CO)S(=O)(=O)c2ccc(C#Cc3ccncc3)cc2O[C@H]1CN(C)C(=O)C1CCCCC1
Cc1ccc(S(=O)(=O)N2C[C@H](O)COC[C@H]3O[C@@H](CC(=O)N[C@H]4CCN(Cc5ccccc5)C4)CC[C@@H]32)cc1
CC(=O)N1CCOC[C@@]2(C1)CN(S(C)(=O)=O)CCO2
COc1cccc(NC(=O)N(C)C[C@H]2OCc3ccccc3-c3c(n(C)c4ccccc34)C(=O)N([C@@H](C)CO)C[C@H]2C)c1
